Paper PMC4336329 (PLoS ONE, 2015)
The whole screen tested about 310,000 compounds, of which about 2,200 (0.71%) showed an effect of 50% or more. Effects have a minus sign here. Some of the results follow.

The compounds below were run against human ether-à-go-go-related gene (hERG) potassium channel (human, UniProt Q12809) (assay: primary screen, population patch clamp on CHO cells stably expressing hERG).
human ether-à-go-go-related gene (hERG) potassium channel, sequence (Q12809 whole entry, looked up): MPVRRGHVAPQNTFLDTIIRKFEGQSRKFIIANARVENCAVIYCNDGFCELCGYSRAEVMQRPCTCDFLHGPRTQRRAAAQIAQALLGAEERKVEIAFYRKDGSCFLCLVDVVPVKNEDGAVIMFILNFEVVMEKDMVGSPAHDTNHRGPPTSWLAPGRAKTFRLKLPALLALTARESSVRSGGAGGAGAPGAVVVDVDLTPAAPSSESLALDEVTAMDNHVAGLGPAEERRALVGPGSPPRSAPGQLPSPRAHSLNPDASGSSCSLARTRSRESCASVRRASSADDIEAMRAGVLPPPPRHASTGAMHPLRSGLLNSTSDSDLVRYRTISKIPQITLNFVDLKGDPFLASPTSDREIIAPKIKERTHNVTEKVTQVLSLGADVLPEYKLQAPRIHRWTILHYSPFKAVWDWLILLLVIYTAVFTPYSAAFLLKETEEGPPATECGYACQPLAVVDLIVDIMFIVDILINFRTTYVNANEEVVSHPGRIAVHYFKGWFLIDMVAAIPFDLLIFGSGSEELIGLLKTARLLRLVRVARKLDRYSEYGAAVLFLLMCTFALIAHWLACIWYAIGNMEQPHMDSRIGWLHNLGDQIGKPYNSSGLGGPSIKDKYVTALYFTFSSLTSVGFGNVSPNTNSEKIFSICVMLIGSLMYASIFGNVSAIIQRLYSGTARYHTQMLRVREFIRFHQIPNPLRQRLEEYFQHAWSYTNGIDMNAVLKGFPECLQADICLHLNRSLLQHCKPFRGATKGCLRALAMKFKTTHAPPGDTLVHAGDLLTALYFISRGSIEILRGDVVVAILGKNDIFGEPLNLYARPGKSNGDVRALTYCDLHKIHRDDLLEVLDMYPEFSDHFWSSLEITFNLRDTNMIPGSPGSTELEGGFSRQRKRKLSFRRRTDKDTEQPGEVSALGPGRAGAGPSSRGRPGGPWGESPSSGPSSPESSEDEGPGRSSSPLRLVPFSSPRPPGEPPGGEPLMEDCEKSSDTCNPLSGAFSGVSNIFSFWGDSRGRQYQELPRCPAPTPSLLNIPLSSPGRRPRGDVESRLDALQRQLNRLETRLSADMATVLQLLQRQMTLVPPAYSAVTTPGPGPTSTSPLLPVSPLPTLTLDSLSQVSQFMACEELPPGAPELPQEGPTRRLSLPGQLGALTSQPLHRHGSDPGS

Compound	hERG current change (%, negative = inhibition) at 1uM
CCN(CC)S(=O)(=O)c1cc(C(=O)OCC(=O)c2ccc3c(c2)NC(=O)CO3)ccc1Cl	0.505%
O=C(/C=C/c1ccc([N+](=O)[O-])s1)N1CCCCC1	0.636%
O=C(NC1CCCC1)C(c1ccncc1)N(CC1CCCO1)C(=O)Cn1nnc(-c2cccs2)n1 (stereo not shown)	3.3%
Cc1ccc(NC(=O)CN(C)CC(=O)Nc2cccc(F)c2)cc1S(=O)(=O)N1CCCCCC1.O=C(O)C(=O)O	14.4%
O=C(c1ccc([N+](=O)[O-])cc1[N+](=O)[O-])N1CCc2ccccc21	14.5%
Cc1ccnc(NS(=O)(=O)c2ccc(NC(=O)c3ccc(S(=O)(=O)N(C)C)cc3)cc2)n1	12.3%
CSc1ncccc1C(=O)OCC(=O)NCCC1=CCCCC1	8.39%
CCO[C@H]1OC(C(=O)N2CCOCC2)=C[C@@H](c2coc3ccccc3c2=O)[C@@H]1CCCO	9.84%
CC(=O)Nc1ccc(S(=O)(=O)NC(C)C(=O)NCCc2ccc(F)cc2)cc1 (stereo not shown)	8.53%
O=C(NCC1CCCO1)c1ccc(CS(=O)(=O)c2ccc(Cl)cc2)o1 (stereo not shown)	5.31%
Nn1c(SCc2nc3ccccc3[nH]2)nnc1-c1cccnc1	-2.13%
C#CC(CCN1CCCCC1)(OC)c1ccccc1.Cl (stereo not shown)	3.65%
COC(=O)c1cc(NC(=O)c2ccc(-c3ccccc3)cc2)ccc1Cl	7.01%
COc1cccc(NC(=O)C2CCCN(c3ncnc4c3nc3n4CCCCC3)C2)c1 (stereo not shown)	-5.25%
Cc1nnc(N(CCC#N)CCC#N)s1	17%
O=C(CSC(=S)N1CCCC1)N1CCN(S(=O)(=O)c2cccc(F)c2)CC1	4.46%
O=S(=O)(c1ccc2c(c1)oc1ccccc12)N1CCOCC1	-1.75%
CN(C)c1nc(N)nc(CSc2nnnn2-c2ccc(F)cc2)n1	2.28%
CS(=O)(=O)N(CCc1ccccc1)CC(=O)NCc1ccc(Cl)cc1	-15.1%
Cc1nnc(SCC(=O)Nc2ccc3[nH]c(=O)[nH]c3c2)s1	13.2%
NNC(=S)Nc1ccc(C(F)(F)F)cc1Cl	12.1%
O=c1[nH]cc(COCC(F)CCl)c(=O)[nH]1 (stereo not shown)	11.5%

Compound	hERG current change (%, negative = inhibition) at 1uM
S=C(NCCc1ccccc1)Nc1c(Cl)cccc1Cl	12.3%
CC(=O)Nc1ccc(NS(=O)(=O)c2ccc(CN3C(=O)c4cccnc4C3=O)cc2)cc1	16.3%
CCOC(=O)N1CCN(C(=O)c2cn(C)c(=O)c3c2c2ccccc2n3C)CC1	7.87%
COc1ccc(S(=O)(=O)N2CCN(C(=O)CCNC(=O)c3ccccc3Cl)CC2)cc1	5.17%
CCn1nc(C)c(NC(=O)CC23CC4CC(CC(C4)C2)C3)c1C	13.9%
CC(=O)Nc1nnc(-c2c(-c3ccccc3Cl)noc2C)o1	13.5%
O=C(N/N=C/c1ccco1)c1cc2ccccc2o1	15%
CCOC(=O)c1cnc(SC)nc1NCCOC	11.2%
COc1ccccc1-c1nnc(SCC(=O)O)n1-c1ccc(C)cc1	8.66%
COC(=O)C1=C(C)N=C2SC(C#N)=C(N)N2C1c1ccc(OCc2ccccc2)cc1 (stereo not shown)	3.21%
O=C(COC(=O)c1cccs1)Nc1cccc(Cl)c1	11.2%
CC(C)(C)c1ccc(C(=O)Nc2cccc([N+](=O)[O-])c2)cc1	4.04%
COc1ccccc1NC(=O)CSc1ccc2nnc(-c3ccc(C)cc3)n2n1	4.45%
Cc1ccc(OCC(=O)OC(C)C(=O)NC2CCCCC2C)cc1C (stereo not shown)	5.55%
O=C(NNC(=O)c1cc2ccccc2cc1O)NC1CCCCC1	16.4%
Cc1c(Cc2ccccc2)sc(NC(=O)c2ccco2)c1C(N)=O	13.1%
OCC[C@H]1C[C@@H](O)[C@H](O)[C@@]2(CCc3ccccc3CO2)O1	0.873%
Cc1ccc(C2CCN(C(=S)NC(C)(C)C)C2)cc1 (stereo not shown)	4.67%
COc1ccc(CCN=C(C)c2cc(C)c(C)cc2O)cc1OC	15.9%
CCOc1ccccc1NC(=O)Cn1c(-c2ccc(Cl)cc2)noc1=O	0.524%
O=C(O)C[C@H]1c2cc(F)ccc2S(=O)(=O)N1C1CCN(Cc2ccccc2)CC1	9.36%
CNC(=O)COC(=O)COc1ccc2c(C)cc(=O)oc2c1	9.96%

Compound	hERG current change (%, negative = inhibition) at 1uM
COc1ccccc1NC(=O)N1C2CCCC1CC(NC(=O)c1ccccc1)C2 (stereo not shown)	9.36%
COc1ccccc1NC(=O)Nc1nc(CC(=O)Nc2ccc(F)cc2)cs1	5.17%
O=C(NC(Cc1c[nH]c2ccccc12)C(=O)O)c1ccc2c(c1)OCO2 (stereo not shown)	15%
Nc1nc(N)nc(-c2cc(Cl)ccc2Cl)n1.O=C(O)/C=C\C(=O)O	-0.0952%
COc1ccc(N2CCN(c3cc(C)c4ccc(O)cc4n3)CC2)cc1	-6.77%
CC(C)(CC(=O)O)CC(=O)NNc1ncccc1C#N	12.3%
COC(=O)c1ccc(N2CCN(S(=O)(=O)c3ccc(C)cc3)CC2)c([N+](=O)[O-])c1	10.3%
Cc1cc(N2CCCC2)nc2ccccc12	-4.05%
CC(C)CCNC(=O)C(=O)NCCC1=CCCCC1	10.1%
Cc1cccc(C(=O)N2CCN(S(=O)(=O)c3ccc4c(c3)OCCCO4)CC2)c1[N+](=O)[O-]	11.9%
O=C(CCCNC(=O)c1ccc(Cl)cc1)Nc1ccccc1F	11.3%
CC1CC(C)CN(CCCNC(=O)Cc2c(C(=O)O)[nH]c3ccccc23)C1 (stereo not shown)	13%
Cc1ccc(-c2c3c(=O)n(C)c(=O)n(C)c3cn2Cc2ccccn2)cc1	4.86%
CN1CC2(C)CN(C(c3ccccc3)c3ccccc3)CC(C)(C1)C2O (stereo not shown)	4.82%
O=C(COc1ccc2ccccc2c1)NCC1CCCO1 (stereo not shown)	12%
COC(=O)c1cc(S(=O)(=O)NCC2CCN(Cc3cccc(F)c3)CC2)cn1C	2.34%
CCOc1ccccc1CNC(=O)c1ccccc1NC(=O)C1=CSCCO1	28.2%
O=C(COc1ccccc1[N+](=O)[O-])NCCCN1CCCC1=O	9.5%
Cc1ccc(S(=O)(=O)N2CCCCC2)cc1NC(=O)c1ccc(Br)o1	2.25%
CCOC(=O)c1nn(-c2ccc(OCC)cc2)c(C)c1C(C)=O	7.59%
Cc1ccccc1-n1c(C)nnc1SCC(=O)N1CC(=O)Nc2ccccc21	11.6%
COc1ccc(C(=O)OC(C)C(=O)NC(C)CCc2ccccc2)cc1[N+](=O)[O-] (stereo not shown)	4.49%

Compound	hERG current change (%, negative = inhibition) at 1uM
CC(C)CNS(=O)(=O)c1ccc(S(=O)(=O)N2CCN(C3CCCC3)CC2)cc1	8.36%
CCCNC(=O)C1CCN(S(=O)(=O)c2ccc3nc4c(c(C(=O)O)c3c2)CCCCC4)CC1	13.9%
COc1ccc(CCNC(=O)CCCn2c(=O)c3cccn3c3cccnc32)c(OC)c1	6.3%
O=c1oc(-c2ccco2)nc2sc3c(c12)CCCC3	11.5%
CN1/C(=C\C(=O)COC(=O)c2ccco2)C(C)(C)c2ccccc21	5.74%
O=C(NC(=S)Nc1cccnc1Cl)c1ccc(Cl)cc1	12%
Cc1cccc(Oc2nc(CN3CCOCC3)nc3sc4c(c23)CCCC4)c1	7.84%
CC(=O)Nc1ccc(-c2cc(C(=O)O)c3ccc(C)cc3n2)cc1	12.6%
O=C(O)c1ccccc1NC(=O)N1CCOCC1	7.59%
CCOc1ccc(OCC)c(NC(=O)CCS(=O)(=O)c2ccc(C)cc2)c1	11.3%
CN(C)CCCNc1oc(/C=C/c2cccs2)nc1S(=O)(=O)c1ccccc1	-10.4%
Cc1ccccc1Nc1cc(C)c2c(O)cccc2n1	3.37%
CCN1/C(=C/c2ccc3ccc(C)cc3[n+]2CC)Sc2ccccc21.[I-]	-63.6%
COc1cc(OC)nc(Oc2cc(C=O)ccc2OC)n1	1.31%
O=C(NC(=O)c1ccccc1)OCCN1C(=O)c2ccccc2C1=O	0.938%
CCC(CC)NC(=O)/C=C/c1cccc([N+](=O)[O-])c1	5.37%
Cc1cccc([N+](=O)[O-])c1NC(=O)COC(=O)C1CCCO1 (stereo not shown)	10.3%
COc1ccc(-c2nn(-c3ccccc3)cc2/C=C/C(=O)N2CCOCC2)cc1OC	4.52%
O=C(Nc1ccc(N2CCCCC2)cc1)c1ccc([N+](=O)[O-])o1	9.19%
CCOc1ccc(-c2nc(CS(=O)(=O)CC(=O)NCc3ccc(F)cc3)c(C)o2)cc1	20.3%
Cc1ccc(S(C)(=O)=O)cc1S(=O)(=O)Nc1cccc(Cl)c1	6.69%
COc1cc(S(=O)(=O)Nc2cccc(C)c2)ccc1N=Cc1c(C)[nH]n(-c2ccccc2)c1=O	10.4%
